From PubChem BioAssay AID1347073 (National Center for Advancing Translational Sciences (NCATS), 2019)
The whole screen tested about 45,000 compounds, of which about 200 (0.44%) were called active. Another 7% or so got no clear call; they are omitted. Calls come from the whole dose curve; as a rule, active = well fitted activation curve with a large enough effect; inconclusive = small, poorly fitted or top-dose-only effect; inactive = no such curve, though single readings can be large or run the other way. The list shows a part of the results.

Experiment: qHTS of TDP-43 Inhibitors: NCGC Sytravon Library Screen; note: 0% is about no effect; nearly all actives have a fitted effect of over 55% in size
Settings: yeast TDP-43 toxicity rescue, BacTiter-Glo growth, 24 h; series mostly up to 46.1 µM; growth rescue (activation): at the top concentration
Summary of the method: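 TDP-43-expressing yeast, pregrown in raffinose, seeded at OD600 0.02 in galactose medium with compound for 24 hr at 30 deg C. Growth read by BacTiter-Glo luminescence, so rescue of toxicity appears as activation.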

SMILES | growth rescue (activation)
COc1ccc(-n2ccc(=O)c3c2CCCC3=O)cc1 | inactive: -0.581%
CCCCCCNC(=O)C(C#N)c1nc2ccccc2nc1N1CCOCC1 (stereo not given) | inactive: -13.2%
COc1ccc(Br)cc1/C=N/NC(=O)CN1CCN(Cc2ccccc2)CC1 | inactive: -11.9%
CC(C)N1C/C(=C/c2ccsc2)C(=O)/C(=C/c2ccsc2)C1 | inactive: -10.4%
COc1cc(NC(=O)CN(C)Cc2ccc(OC(F)F)cc2)c(C)cc1[N+](=O)[O-] | inactive: -0.346%
Cc1sc2nc(SCC(=O)N(C)c3ccccc3)n(C)c(=O)c2c1C | inactive: -3.9%
Cc1ccc2c(c1)N(CC(=O)N1CCN(c3ccccc3)CC1)C(=O)C(C)O2 (stereo not given) | inactive: 26.2%
Cc1nnc(SCC(=O)Nc2cc(S(C)(=O)=O)ccc2Cl)n1Cc1ccccc1 | inactive: 3.91%
Cc1ccc(Cn2nnc3c(=O)[nH]c(C4CCN(S(=O)(=O)/C=C/c5ccccc5)CC4)nc32)cc1 | inactive: 10.8%
Cc1ccccc1C1CCCN(Cc2nc(CC3CC3)no2)C1 (stereo not given) | inactive: 16.9%
CCCC(=O)Nc1ccc(C(=O)Nc2ccc([N+](=O)[O-])cc2OC)cc1 | inactive: 0.498%
COCCCNC(=S)N1CCN(C(c2ccccc2)c2ccccc2)CC1 | inactive: 1.33%
CCOC(=O)/C(=C/c1ccccc1)NC(=O)c1ccco1 | inactive: -1.01%
CCc1ccccc1NC(=O)c1ccc(S(=O)(=O)N2CCCC2)cc1 | inactive: 0.0459%
COc1ccc(NC(=O)c2ccccc2NC(=O)c2ccco2)cc1 | inactive: 14.7%
C/C(=N/NC(=O)C(C)n1nc(C)c([N+](=O)[O-])c1C)c1ccc(OCC(N)=O)cc1 (stereo not given) | inactive: -0.392%
Cc1cc(C(=O)N/N=C2\CC(=O)CC(C)(C)C2)c(C)n1-c1ccc(F)cc1 | inactive: -15.3%
Cc1cc(S(=O)(=O)N2c3ccc(F)cc3CCC2C)ccc1-n1cnnn1 (stereo not given) | inactive: -6.26%
CN(CCC#N)C(=O)COC(=O)c1cc(Cl)cc(Cl)c1N | inactive: -4.88%
Nc1cccc2c1C(=O)N(CCOc1ccc(F)cc1)C2=O | inactive: 17.1%
COc1ccc(Cc2nnc(NC(=O)CS(=O)(=O)c3ccc(C)cc3)s2)cc1OC | inactive: -9.96%
Cc1cc(C)c(C)c(S(=O)(=O)NNC(=O)c2cccc(S(=O)(=O)N3CCOCC3)c2)c1C | inactive: -14%
Cc1nc2ccc(NC(=O)c3ccc([N+](=O)[O-])cc3)cc2s1 | inactive: 18.4%
CCOC(=O)N/N=C\C=C\c1ccc2c(c1)OCO2 | inactive: 16.2%
CC(C(=O)Nc1ccccc1)N(C)CCOc1ccccc1 (stereo not given) | inactive: 8.22%
O=C(CCCOc1ccc(Cl)cc1Cl)NNC(=O)c1ccc(NC(=O)c2ccccc2)cc1 | inactive: 6.27%
COc1cc(C(C(=O)Nc2c(C)cccc2C)N(C)C(=O)c2ccc(-n3cnnn3)cc2)ccc1O (stereo not given) | inactive: -12.3%

SMILES | growth rescue (activation)
Cc1ccccc1-c1nc(C#N)c(NCc2ccco2)o1 | inactive: 0.927%
Cc1ccc(C(C)C)cc1OCC(=O)NCCCn1ccnc1 | inactive: -4.82%
CCC1CCCCN1Cc1nc(Cc2ccccc2Cl)no1 (stereo not given) | inactive: 17.4%
CCCc1ccc(Oc2cc(Cl)nc(N)n2)cc1 | inactive: 22.6%
O=C(c1ccc(S(=O)(=O)N2CCCC2)cc1)N1CCN(c2ccccc2)CC1 | inactive: 20.9%
Cc1ccc(OCc2nc3ccccc3[nH]2)cc1 | inactive: -1.44%
O=C(Nc1cccc(C(=O)O)c1)Nc1ccccc1Cl | inactive: -8.27%
COc1ccc(NC(=O)c2ccc(S(=O)(=O)N3CCCCCC3)cc2)c(OC)c1 | inactive: 2.26%
CCCC(=O)NC(=S)Nc1cccc(-c2nc3ncccc3o2)c1 | inactive: 8.41%
COc1ccc(-c2nn3c(-c4ccc(OC)cc4)nnc3c3ccccc23)cc1 | inactive: 11.1%
Cc1ccc2c(c1)cc(C(=O)Nc1ccccc1C)n2C | inactive: 6.7%
CC(C)CN(C(=O)COC(=O)c1ccccc1SCC(=O)NC1CCCCCC1)C1CCS(=O)(=O)C1 (stereo not given) | inactive: 9.68%
O=C(c1nc2ccccn2c1CNCCCn1ncc2ccccc21)N1CCCC1 | inactive: 7.6%
CC(NC(=O)COC(=O)C12CC3CC(CC(Br)(C3)C1)C2)c1ccccc1 (stereo not given) | inactive: 5.28%
CCC(C)c1ccccc1NC(=O)COC(=O)C1=COCCO1 (stereo not given) | inactive: 15.4%
CCOC(=O)CNC(=O)/C=C/c1c(Cl)cccc1Cl | inactive: 26.8%
O=C(NCCN1C(=O)S/C(=C\c2cccnc2)C1=O)c1cccc(OC(F)F)c1 | inactive: 5.25%
CCOC(=O)N1CCN(C(=S)NC(=O)c2c(-c3c(Cl)cccc3Cl)noc2C)CC1 | inactive: 24.2%
CCOc1ccccc1Nc1nnc(SCC(=O)N(C)C2CCS(=O)(=O)C2)s1 (stereo not given) | inactive: -1.82%
CNc1ccccc1C(C)(C)c1cc(-c2ccc(F)cc2)no1 | inactive: 6.42%
Cc1ccc(NC(=O)CSc2nn(-c3ccc(Cl)cc3)c(=S)s2)cc1S(=O)(=O)N(C)C | inactive: 15.3%
NS(=O)(=O)c1cccc(NC(=O)CCCC2CCCCC2)c1 | inactive: 2.31%
O=C(NCc1ccco1)/C(=C/c1ccco1)NC(=O)c1ccccc1 | inactive: -1.99%
O=C(C1CCN(S(=O)(=O)c2ccccc2)CC1)N1CCN(Cc2ccccc2)CC1 | inactive: 14.1%
CC(=O)Nc1ccc(S(=O)(=O)N[C@@H](C)C(=O)OCC(=O)c2ccc[nH]2)cc1 | inactive: 5.94%
CCCCCCCCn1c2c(c(=N)c3c1CCC3)CCCC2 | inactive: -13.8%
O=C(NCCc1ccccc1)c1ccc2c(=O)[nH]c3c(C(=O)NCC4CCCO4)sc(=S)n3c2c1 (stereo not given) | inactive: 6.09%

SMILES | growth rescue (activation)
CC1CCN(CCCN2C(=O)C3C(C(=O)Nc4ccc(Cl)cc4)C4C=CC3(O4)C2C(=O)NC2CCCCC2)CC1 (stereo not given) | inactive: 1.26%
Cn1c(-c2ccc([N+](=O)[O-])cc2)nc2ccccc21 | inactive: 10.3%
O=c1oc2ccccc2cc1-c1cn2ccccc2n1 | inactive: -7.52%
CCN(CC)c1ccc(/C=N/NC(=S)NCc2ccccc2)c(O)c1 | inactive: -21.9%
CCOc1ccc(Oc2cc(N)cc([N+](=O)[O-])c2)cc1 | inactive: 8.52%
COc1ccc(-c2csc(NC(=S)NC(=O)c3cccs3)n2)cc1OC | inactive: 17.6%
O=S(=O)(/C=C/c1ccccc1)N1CCN(c2nc(-c3cccnc3)nc3ccccc23)CC1 | inactive: -1.18%
CCCC(=O)OCCNc1cc(SCCC(=O)OC)c2nonc2c1[N+](=O)[O-] | inactive: -7.65%
O=S(=O)(Nc1cccnc1Cl)c1ccc(F)cc1 | inactive: 3.77%
CCc1ccc(-n2c(SCC(=O)Nc3cccc(S(=O)(=O)NC4=NCCCCC4)c3)nc3ccccc3c2=O)cc1 | inactive: -3.27%
COc1ccc(CN(CCC(c2ccc3c(c2)OCO3)c2ccccc2OC)C(C)=O)cc1 (stereo not given) | inactive: 12.1%
c1ccc2sc(NCC3CCCO3)nc2c1 (stereo not given) | inactive: 16.5%
Cc1sc(NC(=O)CN(CCc2ccccc2)C(=O)C2CC2)c(C(N)=O)c1C | inactive: 5.39%
CCN(Cc1ccccc1)C(=O)COC(=O)c1cc(S(=O)(=O)Nc2c(C)n(C)n(-c3ccccc3)c2=O)ccc1C | inactive: 14.7%
CC(C)(C)c1ccc(S(=O)(=O)N2CCCC2C(=O)N2CCOCC2)cc1 (stereo not given) | inactive: -5.36%
CC(NC(=O)c1ccc(OC2CCN(C(=O)c3cccnc3)CC2)cc1)C1CC1 (stereo not given) | inactive: 11.4%
CN(CCCNC(=O)CSc1cc(=O)n(C)c2ccc(Cl)cc12)Cc1ccccc1 | inactive: 4.46%
CCOC(=O)c1ccc2nc(C)c3c(c2c1)OC(C)C3 (stereo not given) | inactive: -17%
CCOC(=O)C1CCN(CC(O)COCc2ccccc2)CC1 (stereo not given) | inactive: 1.96%
CCOc1ccc(CN(C)C(=O)CNC(=O)C2CCCCC2)cc1OC | inactive: -2.33%
COc1ccccc1-c1ccc(=O)n(CC(=O)NCc2ccco2)n1 | inactive: -7.65%
CN1CCN(c2ncnc3c2ncn3[C@H]2CN(Cc3ccc4c(c3)OCO4)C[C@@H](CO)O2)CC1 | inactive: 5.29%
CCc1ccc(N(C(=O)c2csnn2)C(C(=O)NC2CCCCC2)c2ccncc2)cc1 (stereo not given) | inactive: 8.91%
Cc1ccc(CNC(=O)CCC2CCCN(C(=O)CCC(F)(F)F)C2)o1 (stereo not given) | inactive: 2.4%
O=C(c1ccc(N2CCOCC2)cc1[N+](=O)[O-])N1CCOCC1 | inactive: -0.814%
Nc1ccc(S(=O)(=O)c2ccc(N)c(N)c2)cc1 | inactive: 7.74%
O=C(Nc1ccncc1)c1ccccc1[N+](=O)[O-] | inactive: -3.63%

SMILES | growth rescue (activation)
CCCNC(=O)c1cc(C2CCCCN2C(=O)c2ccc(OC)cc2)on1 (stereo not given) | inactive: 4.17%
CCCCNCc1nc2ccccc2c(=O)[nH]1 | inactive: -9.82%
C/C(CC(=O)NCc1ccco1)=N\NC(=O)c1ccc(Cl)cc1Cl | inactive: -12%
O=C(O)c1ccc(S(=O)(=O)c2ccc3c(c2)C(=O)N(NC(=O)c2ccncc2)C3=O)cc1 | inactive: 24.5%
COc1ccccc1-n1c(SCC(=O)N(C)C)nnc1-c1ccco1 | inactive: -18.2%
O=C(COC(=O)/C=C/c1cccs1)Nc1ccc2ccccc2c1 | inactive: 24%
CCOC(=O)Cc1csc(NC(=O)c2c(O)c3c(n(CC(C)C)c2=O)CCCC3)n1 | inactive: 7.61%
Cc1ccc(S(=O)(=O)N2CCCCC2)cc1NC(=O)COC(=O)c1ccc(O)cc1 | inactive: 5.75%
O=C(Nc1ccccc1C(F)(F)F)NC1(C(=O)N2CCOCC2)CCCCC1 | inactive: -34.6%
CCc1ccccc1NC(=O)c1ccc2c(c1)CCN2S(C)(=O)=O | inactive: -4.08%
OC[C@@H]1CN(Cc2ccc(-c3ccccc3)cc2)C[C@H](n2cnc3c(NC4CCCC4)ncnc32)O1 | inactive: -1.29%
Cc1ccc(-c2csc(N3C(=N)SCC3=O)n2)cc1 | inactive: -1.96%
Cc1cccc(CSCCNC(=O)c2ccc(CN3CCOCC3)cc2)c1 | inactive: 3.27%
c1ccc(C2=Nc3cccnc3C(c3ccccc3)=NN2)cc1 | inactive: 14.2%
CCCCC(=O)NC(c1ccc(N(CC)CC)cc1)c1ccc2cccnc2c1O (stereo not given) | inactive: -9.8%
COc1cccc2c(=O)cc(C)n(CC(=O)Nc3ccc(Br)cc3)c12 | inactive: -0.77%
Oc1ccc(/C=N/N2CCN(C3c4ccccc4-c4ccccc43)CC2)c(O)c1 | inactive: 2.54%
COC(=O)c1nnn(-c2nonc2N)c1CSc1nnc(N)s1 | inactive: -9.11%
O=C(N/N=C/c1cccs1)c1cnccn1 | inactive: -4.38%
O=C(COc1cc(Cl)c(Cl)cc1Cl)N1CCN(c2ccccn2)CC1 | inactive: 3.5%
CC(=O)Nc1ccc(NC(=O)C(C)OC(=O)CNC(=O)c2sc3ccccc3c2Cl)cc1 (stereo not given) | inactive: 3.51%
CN(CCOC(=O)c1cccc(Br)c1)C(C)(C)C | inactive: -16.7%
Cc1ccc(S(=O)(=O)N2CCCC2)cc1C(=O)N1CCN(Cc2ccccc2)CC1 | inactive: -8.23%
CC(C)Cn1c(N)cc(=O)n(C)c1=O | inactive: 5.27%
